Assay results as given in the supplement of paper PMC7826260.
The list shows a part of the results. Each Rep nickase domain was tested in vitro on the same pool of single strands for 1 h at 37 °C with 3 µM enzyme; only the middle of the 90-letter strands is printed. A value is the log2 ratio of uncut reads to the pool without enzyme; uncut sequences lie near 0, cut ones below; no hit call is given. Shares of all reads are compared; uncut strands gain when others are lost, and binding without cutting may add a little.

Tests used:
Assay in all cases: uncleaved DNA left, log2 of reads against the no-enzyme library (log2 ratio); higher = less cleavage (more negative = more Rep cleavage of the k-mer); sequences stand for … in CTCGTCCG…ACCGGAGA
[1] = test system: T1, Rep nickase domain of Muscovy duck circovirus
T1 sequence (Rep 1-111, printed without the tag): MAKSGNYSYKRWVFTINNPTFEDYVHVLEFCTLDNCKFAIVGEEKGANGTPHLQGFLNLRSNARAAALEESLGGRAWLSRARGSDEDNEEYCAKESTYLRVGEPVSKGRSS
Method: (§1)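 A pool of 90-nt single-stranded DNAs with seven random bases just before the constant AC of the nick site (name = the seven bases) was cut by 3 µM recombinant His6-SUMO-tagged Rep nickase domain (300 nM DNA, 50 mM HEPES pH 8.0, 50 mM NaCl, 1 mM MnCl2, 1 h, 37 °C, three replicates). Uncut DNA was amplified and sequenced.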

[2] = test system: T2, Rep nickase domain of banana bunchy top virus
T2 sequence (Rep 1-94, printed without the tag): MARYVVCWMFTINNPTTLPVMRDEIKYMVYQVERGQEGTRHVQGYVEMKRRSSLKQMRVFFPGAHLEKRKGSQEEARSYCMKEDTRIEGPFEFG
Method: as §1

[3] = test system: T3, Rep nickase domain of cabbage leaf curl virus
T3 sequence (Rep 1-116, printed without the tag): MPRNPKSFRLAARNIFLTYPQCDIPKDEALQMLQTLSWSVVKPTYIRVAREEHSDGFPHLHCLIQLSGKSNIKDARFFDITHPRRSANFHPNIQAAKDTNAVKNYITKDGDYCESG
Method: as §1

[4] = test system: T4, Rep nickase domain of chickpea chlorotic dwarf virus
T4 sequence (Rep 1-124, printed without the tag): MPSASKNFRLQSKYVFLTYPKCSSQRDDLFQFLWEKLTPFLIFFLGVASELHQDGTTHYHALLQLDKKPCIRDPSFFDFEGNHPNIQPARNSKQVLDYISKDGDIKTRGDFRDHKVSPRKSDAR
Method: as §1

[5] = test system: T5, Rep nickase domain of faba bean necrotic yellows virus
T5 sequence (Rep 1-98, printed without the tag): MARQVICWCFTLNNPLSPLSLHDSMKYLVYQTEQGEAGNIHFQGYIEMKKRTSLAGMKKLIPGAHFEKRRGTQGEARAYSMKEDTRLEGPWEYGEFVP
Method: as §1

[6] = test system: T6, Rep nickase domain of maize striate mosaic virus
T6 sequence (Rep 1-117, printed without the tag): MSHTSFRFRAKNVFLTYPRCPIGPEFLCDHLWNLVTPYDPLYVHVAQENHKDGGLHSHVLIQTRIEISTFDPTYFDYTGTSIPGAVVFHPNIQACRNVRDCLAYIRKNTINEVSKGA
Method: as §1

[7] = test system: T7, Rep nickase domain of porcine circovirus 2
T7 sequence (Rep 2-116, printed without the tag): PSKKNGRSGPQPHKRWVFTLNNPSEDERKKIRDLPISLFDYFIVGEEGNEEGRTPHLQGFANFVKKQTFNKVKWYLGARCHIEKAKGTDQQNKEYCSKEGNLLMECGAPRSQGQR
Method: as §1

[8] = test system: T8, Rep nickase domain of tomato yellow leaf curl virus
T8 sequence (Rep 1-136, printed without the tag): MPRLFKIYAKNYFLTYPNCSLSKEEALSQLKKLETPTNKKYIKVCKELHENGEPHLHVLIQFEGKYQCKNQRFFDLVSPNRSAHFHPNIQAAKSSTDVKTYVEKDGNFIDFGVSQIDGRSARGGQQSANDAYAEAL
Method: as §1

[9] = test system: T9, Rep nickase domain of wheat dwarf virus
T9 sequence (Rep 1-137, printed without the tag): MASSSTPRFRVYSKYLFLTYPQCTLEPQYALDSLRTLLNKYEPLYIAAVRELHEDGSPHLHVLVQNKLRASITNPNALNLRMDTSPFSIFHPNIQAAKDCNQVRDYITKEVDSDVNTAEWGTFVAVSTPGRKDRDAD
Method: as §1

Row | Sequence | uncleaved DNA left (log2) [1] | uncleaved DNA left (log2) [2] | uncleaved DNA left (log2) [3] | uncleaved DNA left (log2) [4] | uncleaved DNA left (log2) [5] | uncleaved DNA left (log2) [6] | uncleaved DNA left (log2) [7] | uncleaved DNA left (log2) [8] | uncleaved DNA left (log2) [9]
1 | AAAGGAC | 0.026 | 0.0714 | 0.274 | 1.31 | -0.0353 | 1.24 | 0.185 | -0.0191 | 0.116
2 | TGTCGCC | 0.0732 | 0.052 | 0.106 | -0.075 | -0.0573 | -0.256 | 0.166 | 0.114 | 0.0131
3 | AACTCAG | 0.00161 | 0.0228 | -0.62 | -0.624 | 0.0586 | -1.14 | 0.129 | -0.079 | -0.0262
4 | GCCGCTT | 0.0366 | -0.128 | 0.139 | -0.812 | -0.0295 | 0.00339 | -0.018 | -0.0822 | -0.0125
5 | CTTCTGG | 0.117 | 0.102 | 0.109 | 0.373 | 0.0283 | -0.11 | 0.169 | 0.0617 | 0.00695
6 | CGTGGCA | 0.061 | 0.132 | 0.162 | 0.262 | -0.0466 | -0.136 | 0.00927 | 0.182 | 0.0162
7 | GTATGGC | 0.0324 | 0.0122 | 0.112 | 0.561 | 0.00549 | 0.0219 | 0.00124 | 0.0733 | 0.0304
8 | AAGCGGA | 0.0923 | 0.0318 | 0.194 | 0.53 | -0.0224 | 0.253 | 0.0196 | -0.011 | 0.0181
9 | GACCGAT | -0.0151 | -0.0633 | 0.182 | 0.826 | -0.0133 | 1.11 | 0.0645 | -0.0317 | 0.0932
10 | GGCGTCT | -0.0174 | 0.0478 | 0.286 | 0.937 | 0.0821 | 1.76 | 0.134 | 0.0825 | 0.174
11 | TGTTGTG | 0.00669 | -0.0655 | -0.817 | 0.0752 | -0.062 | -0.801 | 0.0334 | -0.0131 | -0.0494
12 | CTTATTC | -0.0786 | -0.0321 | -0.0707 | -0.279 | -0.0387 | -0.977 | -0.0914 | -0.0654 | 0.0211
13 | GGTGATG | -0.00956 | 0.0358 | 0.237 | 0.78 | -0.0119 | 1.4 | 0.0881 | -0.109 | -0.0677
14 | ATCTGAA | 0.0155 | -0.132 | -0.0184 | 0.483 | 0.0732 | 0.571 | 0.114 | 0.000705 | 0.108
15 | TCACTAG | -0.104 | -0.0449 | -0.67 | -0.832 | 0.0835 | -1.37 | 0.155 | 0.0401 | -0.103
16 | ACTAGGC | 0.0712 | 0.0638 | -0.172 | -0.0837 | 0.0942 | -0.916 | 0.175 | 0.0735 | 0.0212
17 | ATCTAAC | 0.0623 | 0.00172 | -0.274 | -1.6 | 0.0175 | -0.852 | 0.00661 | -0.0501 | -0.0102
18 | GTCGTAA | 0.105 | 0.262 | 0.41 | 0.948 | 0.214 | 1.87 | 0.141 | 0.0911 | 0.18
19 | CGCGCCA | -0.0679 | -0.0937 | -0.0789 | -0.0978 | -0.0834 | 0.103 | -0.0738 | -0.0975 | -0.127
20 | CCTATTG | 0.0147 | -0.0358 | -0.579 | -0.558 | 0.0819 | -1.22 | 0.0699 | -0.0337 | -0.0302
21 | GCCATTT | -0.108 | 0.112 | -0.0711 | -0.885 | 0.0471 | -0.473 | -0.0682 | 0.0894 | -0.0873
22 | TTGCCCG | -0.39 | -0.286 | -0.741 | -0.17 | -0.0413 | -0.91 | -2.39 | -0.104 | -0.216
23 | CAGGAAA | 0.123 | 0.061 | 0.275 | 1.08 | 0.0119 | 1.1 | 0.216 | -0.0502 | 0.101
24 | GCTAGGA | 0.0135 | 0.0168 | 0.0944 | 0.513 | 0.0195 | 0.0653 | 0.0773 | 0.0547 | 0.0189
25 | CGCCGGA | -0.000673 | 0.0728 | 0.151 | 0.444 | 0.0336 | 0.128 | 0.0355 | -0.0409 | -0.0182
26 | CTAGCGC | -0.0149 | -0.113 | -0.927 | -0.676 | -0.105 | -1.07 | 0.0261 | -0.0179 | -0.196
27 | CCCTCCG | -0.0263 | 0.000382 | -0.792 | -0.0459 | -0.126 | -0.837 | -0.0174 | -0.101 | -0.157
28 | AGTAGCC | -0.0141 | -0.0167 | 0.0275 | 0.156 | -0.144 | -0.716 | 0.00658 | -0.0331 | -0.0656
29 | GTCACGT | 0.078 | 0.128 | 0.375 | 0.824 | 0.0176 | 1.16 | 0.167 | 0.177 | 0.168
30 | GTCGCGA | -0.00762 | -0.0666 | -0.46 | -0.343 | -0.0572 | -0.606 | 0.0947 | -0.0387 | -0.165
